Results as given in patent publication US11628159B2, “Cell-protective compounds and their use” (ETH ZURICH, priority 2017, dated 2023).
One block for each compound: values may come before it.

Assays:
[1] = target: T1, GRK2 (Homo sapiens, UniProt P25098); test: In vitro phosphorylation assay: GRK2-mediated phosphorylation of SRSF1 with purified proteins; assay type: biochemical
T1 construct: fused on or other part: hexahistidine tag
T1 sequence (P25098 1-669 limits assumed): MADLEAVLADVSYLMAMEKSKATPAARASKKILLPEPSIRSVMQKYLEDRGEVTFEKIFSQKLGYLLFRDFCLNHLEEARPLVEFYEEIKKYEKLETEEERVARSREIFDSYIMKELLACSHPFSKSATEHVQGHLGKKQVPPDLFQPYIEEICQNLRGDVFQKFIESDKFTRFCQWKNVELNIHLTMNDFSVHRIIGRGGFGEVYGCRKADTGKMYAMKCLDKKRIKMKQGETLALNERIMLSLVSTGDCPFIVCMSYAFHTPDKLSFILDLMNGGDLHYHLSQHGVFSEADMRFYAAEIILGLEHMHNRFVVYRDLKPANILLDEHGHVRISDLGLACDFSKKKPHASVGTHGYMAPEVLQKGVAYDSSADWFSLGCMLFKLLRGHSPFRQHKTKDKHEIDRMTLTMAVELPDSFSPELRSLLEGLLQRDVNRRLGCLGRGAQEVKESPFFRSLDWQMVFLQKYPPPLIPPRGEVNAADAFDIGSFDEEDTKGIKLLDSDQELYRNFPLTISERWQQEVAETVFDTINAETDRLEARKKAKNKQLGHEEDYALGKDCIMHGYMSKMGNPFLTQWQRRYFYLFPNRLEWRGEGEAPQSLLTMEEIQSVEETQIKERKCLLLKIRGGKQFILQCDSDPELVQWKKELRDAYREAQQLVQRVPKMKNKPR
Method: The GRK2-mediated phosphorylation of SRSF1 was determined with purified proteins in the presence of increasing concentrations of paroxetine or different small molecule compounds. SRSF1 phosphorylation is presented as % of control, which is the SRSF1 phosphorylation in the absence of inhibitor.
Recombinant human GRK2 protein and GRK2-S670A protein was expressed in and purified from Spodoptera frugiperda (Sf9) cells by the baculoviral expression system. […] Sf9 cells were infected with recombinant baculoviruses at an MOI of 2-3, 48 h after infection cells were harvested by centrifugation, lysed with lysis buffer (300 mM NaCl, 50 mM HEPES, pH 7.5 supplemented with 1% NP40, 1 mM PMSF and protease inhibitor cocktail) and applied to Ni-NTA chromatography. After overnight incubation at 4° C., unbound proteins were removed by washing with lysis buffer (20× column volumes) followed by 1× column volume of 30 mM imidazole-containing lysis buffer. Bound GRK2 was eluted by 300 mM imidazole in lysis buffer, desalted by PD10 column chromatograpy, supplemented with 20% glycerol and stored at −80° C. for further use. […]
Recombinant proteins were used for an in vitro phosphorylation assay with GRK2 and GRK2-S670A. […] After three washing steps with 5 ml of reaction buffer, filter-bound radioactivity was determined in a β-counter.

[2] = system: Tg-RKIP mice; test: Paroxetine treatment of Tg-RKIP mice (heart failure phenotype); conditions: 5 mg/kg body weight per day in drinking water, 8 weeks
[3] = system: GRK2-mediated phosphorylation of SRSF1; test: Immunoblot of SRSF1 phosphorylation (pSRSF1) in HEK (human embryonic kidney) cells; assay type: cell-based; conditions: 10 microM, 60 h, relative to vehicle
Method: A, The GRK2-mediated phosphorylation of SRSF1/Srsf1 was determined by immunoblot in lysates from isolated neonatal cardiomyocytes from Tg-SRSF1 mice after incubation for 60 h with 10 microM of paroxetine, 1-(1,3-benzodioxol-5-yl)-4-(cyclopropane-carbonyl)-3-hydroxy-2-phenyl-2H-pyrrol-5-one (“Compound-1”) or 4-(1,3-benzodioxol-5-yl)pyrimidine (“Compound-4”) relative to vehicle-treated control (“C”) cardiomyocytes. B, Immunoblot detection of GRK2-mediated phosphorylation of SRSF1 (pSRSF1) was performed with lysates from HEK (human embryonic kidney) cells incubated for 60 h with 10 microM of 4-(1,3-benzodioxol-5-yl)pyrimidine (“Compound-4”), 1-(1,3-benzodioxol-5-ylmethyl)-5-(4-chlorophenyl)-2-methyl-pyrrole-3-carboxamide (“Compound-24”) or (4R)-N3-(1,3-benzodioxol-5-ylmethyl)-N4-[[3-(trifluoromethyl)phenyl]-methyl]pyrrolidine-3,4-dicarboxamide (“Compound-5”) relative to vehicle-treated controls (“C”).
Briefly, the hearts were dissected out from 2-3 day-old mice, atria and aorta were removed, and the hearts were transferred into sterile buffer A (137 mM NaCl, 5.36 mM KCl, 0.81 mM MgSO4, 5.55 mM dextrose, 0.44 mM KH2PO4, 0.34 mM Na2HPO4, 20 mM HEPES, 100 U/ml penicillin, 100 microg/ml streptomycin, pH 7.4). […]

[4] = system: GRK2-mediated phosphorylation of Srsf1; test: Cardiac Srsf1 phosphorylation under basal conditions in non-transgenic B6 mice after short-term treatment; assay type: in vivo, mouse; conditions: 10 mg/kg i.p., 5 h, immunoblot, relative to vehicle
Method: A, The GRK2-mediated phosphorylation of Srsf1 was determined by immunoblot in cardiac lysates prepared from hearts of non-transgenic B6 mice after treatment (i.p.) for 5 h with 10 mg/kg of 1-(1,3-benzodioxol-5-yl)-4-(cyclopropane-carbonyl)-3-hydroxy-2-phenyl-2H-pyrrol-5-one (“Compound-1”), 4-(1,3-benzodioxol-5-yl)pyrimidine (“Compound-4”), 1-(1,3-benzodioxol-5-ylmethyl)-5-(4-fluorophenyl)-2-methyl-pyrrole-3-carboxamide (“Compound-2”), or (4R)-N3-(1,3-benzodioxol-5-ylmethyl)-N4-[[3-(trifluoromethyl)phenyl]-methyl]pyrrolidine-3,4-dicarboxamide (“Compound-5”) relative to vehicle-treated B6 controls (“con”). […] B, Left panel: The AAC-induced cardiac p-Srsf1 content was determined in cardiac lysates from B6 mice with AAC after treatment for 7 days with 5 mg/kg/d of 1-(1,3-benzodioxol-5-yl)-4-(cyclopropane-carbonyl)-3-hydroxy-2-phenyl-2H-pyrrol-5-one (“Compound-1”) or (4R)-N3-(1,3-benzodioxol-5-ylmethyl)-N4-[[3-(trifluoromethyl)phenyl]-methyl]pyrrolidine-3,4-dicarboxamide (“Compound-5”) relative to vehicle-treated B6 controls with AAC (“AAC-con”). […] Right and lower panels: Cardiac function parameters were determined by echocardiography in B6 mice with AAC after treatment for 7 days with “Compound-1” or “Compound-5” relative to vehicle-treated B6 controls with AAC ((±s.d.; n=5 (A) and n=3 (B); Dunnett's Multiple Comparison Test vs. con (A) or AAC-con (B)).

[5] = system: B6 mice with AAC; test: Chronic pressure overload (AAC) model, 7 days of treatment: cardiac p-Srsf1 and echocardiography; assay type: in vivo, mouse; conditions: 5 mg/kg/d for 7 days
Method: A, The GRK2-mediated phosphorylation of Srsf1 was determined by immunoblot in cardiac lysates prepared from hearts of non-transgenic B6 mice after treatment (i.p.) for 5 h with 10 mg/kg of 1-(1,3-benzodioxol-5-yl)-4-(cyclopropane-carbonyl)-3-hydroxy-2-phenyl-2H-pyrrol-5-one (“Compound-1”), 4-(1,3-benzodioxol-5-yl)pyrimidine (“Compound-4”), 1-(1,3-benzodioxol-5-ylmethyl)-5-(4-fluorophenyl)-2-methyl-pyrrole-3-carboxamide (“Compound-2”), or (4R)-N3-(1,3-benzodioxol-5-ylmethyl)-N4-[[3-(trifluoromethyl)phenyl]-methyl]pyrrolidine-3,4-dicarboxamide (“Compound-5”) relative to vehicle-treated B6 controls (“con”). […] B, Left panel: The AAC-induced cardiac p-Srsf1 content was determined in cardiac lysates from B6 mice with AAC after treatment for 7 days with 5 mg/kg/d of 1-(1,3-benzodioxol-5-yl)-4-(cyclopropane-carbonyl)-3-hydroxy-2-phenyl-2H-pyrrol-5-one (“Compound-1”) or (4R)-N3-(1,3-benzodioxol-5-ylmethyl)-N4-[[3-(trifluoromethyl)phenyl]-methyl]pyrrolidine-3,4-dicarboxamide (“Compound-5”) relative to vehicle-treated B6 controls with AAC (“AAC-con”). […] Right and lower panels: Cardiac function parameters were determined by echocardiography in B6 mice with AAC after treatment for 7 days with “Compound-1” or “Compound-5” relative to vehicle-treated B6 controls with AAC ((±s.d.; n=5 (A) and n=3 (B); Dunnett's Multiple Comparison Test vs. con (A) or AAC-con (B)). […]

IC50 ([1]; purified proteins, read-out: IC50 value, inhibition of GRK2-mediated SRSF1 phosphorylation): 12.9 µM
Structure (SMILES): O=C(NCc1ccc2c(c1)OCO2)[C@@H]1CSCC(c2ccc(F)cc2)N1 (stereo partly drawn) [Compound-3, (3R)—N-(1,3-benzodioxol-5-ylmethyl)-5-(4-fluorophenyl)thiomorpholine-3-carboxamide]

Structure (SMILES): Fc1ccc([C@@H]2CCNC[C@H]2COc2ccc3c(c2)OCO3)cc1 [Paroxetine]
cardiac content of activating Srsf1 phosphorylation ([2]; Tg-RKIP hearts): decreased | splicing of Camk2d isoforms B/C ([2]; Tg-RKIP hearts): decreased | development of myocardial necrosis and signs of heart failure ([2]; Tg-RKIP mice): retarded

Structure (SMILES): Cc1c(C(N)=O)cc(-c2ccc(Cl)cc2)n1Cc1ccc2c(c1)OCO2 [Compound-24, 1-(1,3-benzodioxol-5-ylmethyl)-5-(4-chlorophenyl)-2-methyl-pyrrole-3-carboxamide]
SRSF1 phosphorylation in human kidney cells [3]: inhibited

Inhibition of the in vitro phosphorylation of SRSF1 by GRK2 ([1]; result in words): no inhibitory effect up to 1 mM
Structure (SMILES): CC(C)Cc1ccc(C(C)C(=O)O)cc1 (racemic) [Compound-6, (±)-2-(4-isobutylphenyl)propanoic acid, reference compound]

Structure (SMILES): Cc1c(C(N)=O)cc(-c2ccc(F)cc2)n1Cc1ccc2c(c1)OCO2 [Compound-2, 1-(1,3-benzodioxol-5-ylmethyl)-5-(4-fluorophenyl)-2-methyl-pyrrole-3-carboxamide]
GRK2-mediated Srsf1 phosphorylation under basal conditions in the hearts of non-transgenic B6 mice [4]: decreased

Structure (SMILES): O=C(NCc1ccc2c(c1)OCO2)C1CNC[C@@H]1C(=O)NCc1cccc(C(F)(F)F)c1 (stereo partly drawn) [Compound-5, (4R)-N3-(1,3-benzodioxol-5-ylmethyl)-N4-[[3-(trifluoromethyl)phenyl]-methyl]pyrrolidine-3,4-dicarboxamide]
SRSF1 phosphorylation in human kidney cells [3]: inhibited | cardiac performance after chronic pressure overload imposed by AAC ([5]; echocardiography): improved | chronic pressure overload-induced cardiac p-Srsf1 content ([5]; relative to vehicle): retarded | GRK2-mediated Srsf1 phosphorylation under basal conditions in the hearts of non-transgenic B6 mice [4]: decreased
